Measurements taken from PubChem BioAssay AID485294 (National Center for Advancing Translational Sciences (NCATS), 2010).
Out of some 370,000 compounds screened, about 150 (0.041%) were called active. Inconclusive results, whose numbers are uncertain, are shown with a selection of clear calls. The call rests on the fitted dose curve; in most records, active means well fitted inhibition curve with a large enough effect; inconclusive means small, poorly fitted or top-dose-only effect; inactive means flat fitted curve, though single readings scatter. Potencies of inconclusive entries are left out as doubtful fits.

target: Beta-lactamase (Escherichia coli (strain K12)) (UniProt P00811); assay: qHTS Inhibitors of AmpC Beta-Lactamase (assay with detergent); details: AmpC hydrolysis of nitrocefin, absorbance 480 nm, 0.01% Triton; series mostly up to 114 µM; further: nearly all actives have a fitted effect of over 25% in size
Sequence of UniProt P00811 (P00811 whole entry, looked up): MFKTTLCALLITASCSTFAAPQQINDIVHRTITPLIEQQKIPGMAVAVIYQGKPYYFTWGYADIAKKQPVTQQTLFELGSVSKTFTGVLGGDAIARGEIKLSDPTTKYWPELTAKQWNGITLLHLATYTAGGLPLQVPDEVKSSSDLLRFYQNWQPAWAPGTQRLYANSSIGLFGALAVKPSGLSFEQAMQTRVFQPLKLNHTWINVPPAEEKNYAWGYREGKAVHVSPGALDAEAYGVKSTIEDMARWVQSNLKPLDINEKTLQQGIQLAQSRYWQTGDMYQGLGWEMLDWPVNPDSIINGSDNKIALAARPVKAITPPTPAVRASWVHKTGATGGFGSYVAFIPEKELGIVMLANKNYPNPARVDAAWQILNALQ
In short: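 20 mM phosphate pH 7.0 + 0.01% (detergent screen) or 0.0001% Triton X-100; 5.3 nM AmpC reagent; cpd preinc 15 min RT; nitrocefin (800 uM stock) to start; A480 q20 s × 4 min; Activity was normalised to no-enzyme and no-compound control wells.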
Potency means the concentration at half of the fitted maximal effect; tags describe the fitted curve by direction and shape.

Row | SMILES | Potency
1 | O=C(Nc1ccc(C(F)(F)F)cc1Cl)c1ccc(Cn2cc(Br)cn2)o1 | inactive
2 | CN(CC(=O)N1CCCCCC1)S(=O)(=O)c1cccc2cccnc12 | inconclusive [inhibitor, full curve, poor fit]
3 | Cc1nn2c(=O)cc(CSc3ccccc3NC(=O)c3ccccc3F)nc2s1 | inactive
4 | CCOC(=O)CC1(NC(=O)C2CCC(=O)N(Cc3ccccc3F)C2)CCCCC1 (centres undefined) | inconclusive [inhibitor, full curve]
5 | Cc1cccc(CC(=O)Nc2ccc(C(=O)N3CCOCC3)cc2)c1 | inconclusive [inhibitor, single point]
6 | O=[N+]([O-])c1cccnc1N/N=C/c1ccccc1O | inactive
7 | CN(C)c1ccc(S(=O)(=O)NCC(=O)N2CCN(c3ccccc3)CC2)cc1[N+](=O)[O-] | inconclusive [inhibitor, partial curve, poor fit]
8 | Cc1ccc(NC(=O)/C(C#N)=N/Nc2ccc(C(=O)O)cc2)c(C)c1 | inactive
9 | CN(C)c1ccc(CNC(=O)c2cnc3sc(N4CCOCC4)nn3c2=O)cc1 | inactive
10 | CCS(=O)(=O)N1CCN(c2cccc(C)c2C)CC1 | inconclusive [inhibitor, single point]
11 | Cc1ccc(NC(=O)CN(C)C(=O)COC(=O)/C=C/c2cccs2)cc1 | inconclusive [inhibitor, partial curve, poor fit]
12 | COC(=O)c1ccc(N)c(N=CC2=C(O)CC(C)(C)CC2=O)c1 | inconclusive [inhibitor, partial curve]
13 | Cn1nc(-c2ccccc2F)c2cc(C(=O)NCCc3ccc(Cl)cc3)sc21 | inactive
14 | COc1cccc(NC(=O)CSc2ccc3nnc(CCNC(=O)c4ccccc4)n3n2)c1 | inconclusive [inhibitor, full curve, poor fit]
15 | Nc1nc(CN2CCN(Cc3ccccc3)CC2)nc(Nc2ccccc2)n1 | inconclusive [inhibitor, partial curve, poor fit]
16 | COCC(=O)N1CCC(Oc2ccc(C(=O)N(C)C(C)c3ccon3)cc2)CC1 (centres undefined) | inconclusive [inhibitor, full curve]
17 | CC(=O)CCc1ccc(Oc2nc(-c3cccnc3)nc3ccccc23)cc1 | inconclusive [inhibitor, full curve, poor fit]
18 | Cc1[nH]n(C)c(=O)c1C(=O)c1c(-c2ccccc2Cl)noc1C | inactive
19 | COc1ccc(C2CC(c3cccs3)=NN2S(C)(=O)=O)cc1OC (centres undefined) | inactive
20 | CCOC(=O)C1CCN(C(c2cccc(F)c2)c2c(O)cc(C)n(Cc3ccco3)c2=O)CC1 (centres undefined) | inactive
21 | CCn1c(SCC(=O)Nc2cc(C)on2)nc2sc3c(c2c1=O)CCCC3 | inconclusive [inhibitor, full curve, poor fit]
22 | O=c1c2ccccc2oc2cc(NCCCN3CCOCC3)ccc12 | inconclusive [inhibitor, full curve, poor fit]
23 | COc1ccccc1CNC(=O)c1cc(-c2ccccc2)n(Cc2cc(C)no2)n1 | inconclusive [inhibitor, partial curve, poor fit]

Row | SMILES | Potency
24 | Cc1nn(CC(=O)OCC(=O)NC(C)c2ccccc2)c(C)c1[N+](=O)[O-] (centres undefined) | inactive
25 | COc1cccc2cc(C(C)N(CCCN3CCOCC3)C(=S)Nc3cc(C)cc(C)c3)oc12 (centres undefined) | inconclusive [inhibitor, full curve]
26 | CCC1CCCCN1C(=O)CSc1nnc(-c2cccs2)o1 (centres undefined) | inactive
27 | CCC(=O)N1CCc2cc(Br)cc(S(=O)(=O)N3CCC(C(=O)Nc4ccccc4CC)CC3)c21 | inactive
28 | CCC(C(=O)O/N=C(\N)c1cccc(C)c1)c1ccccc1 (centres undefined) | inconclusive [inhibitor, single point]
29 | NNc1cc(C(=O)O)ccc1Cl | inactive
30 | CCOCC(=O)Nc1c(C(=O)Nc2ccc(OC)cc2OC)oc2ccccc12 | inconclusive [inhibitor, full curve]
31 | CCCn1c2ccccc2c2cnn(CC(=O)NCc3ccccc3Cl)c(=O)c21 | inactive
32 | CCN(CC)C(=O)CSc1nc2c(sc(=S)n2-c2ccccc2)c(=O)n1Cc1ccco1 | inconclusive [inhibitor, partial curve, poor fit]
33 | CCCCCCCN1CCN=C1N(C)C | inconclusive [inhibitor, full curve, poor fit]
34 | CCCCN1C(=O)c2[nH]nc(-c3ccccc3O)c2C1c1ccc(C(C)(C)C)cc1 (centres undefined) | inactive
35 | CC(=O)Nc1ccc2ccccc2c1 | inactive
36 | CCOc1cc(C(=O)OCc2ccc([N+](=O)[O-])cc2)ccc1OCC(=O)N1CCOCC1 | inconclusive [inhibitor, full curve, poor fit]
37 | Nc1ncnc2c1ncn2[C@@H]1O[C@H](COP(=O)(O)OP(=O)(O)OP(=O)(O)O)[C@@H](O)[C@H]1O | inconclusive [inhibitor, full curve, poor fit]
38 | CC(NCc1ccc2c(c1)OCO2)c1ccccc1 (centres undefined) | inconclusive [inhibitor, partial curve, poor fit]
39 | Cc1[nH]c2ccccc2c1C(=O)COC(=O)Cn1c(C(F)(F)F)nc2ccccc21 | inactive
40 | CC(=O)Oc1ccc(C(=O)Cc2ccc3ccccc3n2)c(O)c1C | inconclusive [inhibitor, single point]
41 | Cc1ccc(S(=O)(=O)N(C)C)cc1NC(=O)COC(=O)Cc1ccsc1 | inconclusive [inhibitor, full curve, poor fit]
42 | CC(C)N(C)C1CCN(S(=O)(=O)c2ccc(-c3ccc(=O)[nH]n3)s2)CC1 | inconclusive [inhibitor, full curve, poor fit]
43 | CCCCCOC(=O)C1C(c2ccccc2)C(C(=O)O)C1c1ccccc1 (centres undefined) | inconclusive [inhibitor, full curve]
44 | O=C(COC(=O)c1ccccc1)Nc1ccc(Cl)cn1 | inconclusive [inhibitor, full curve, poor fit]
45 | COc1ccccc1NCC(=O)N/N=C/c1sccc1C | inactive
46 | Cc1nc2ccccn2c1C(=O)N/N=C/c1ccc2c(c1)OCO2 | inconclusive [inhibitor, single point]

Row | SMILES | Potency
47 | CC(=O)Oc1oc(-c2ccccc2)nc1C=Nc1ccccc1 | inactive
48 | Cc1cccc(C(=O)NNC(=O)c2ccc(Br)cc2)c1 | inconclusive [inhibitor, single point]
49 | O=C(CSc1nc2[nH]ncc2c(=O)[nH]1)Nc1ccccc1C(F)(F)F | inconclusive [inhibitor, single point]
50 | Cc1ccsc1C(=O)Nc1cccc(-n2cnnn2)c1 | inactive
51 | CC(=O)Nc1ccc(NS(=O)(=O)c2cc(-c3cnc(C4CC4)o3)ccc2C)cc1 | inactive
52 | Cc1c(C(=O)OC2CCCCC2)[nH]c2c1C(=O)CC(C)(C)C2 | inactive
53 | CC1(C)CC(CCNC(=O)c2ccco2)CC(C)(C)N1 | inactive
54 | Cc1cc(C(=O)NC2=NCCS2)cs1 | inconclusive [inhibitor, single point]
55 | CCOC(=O)N1CCN(C(=O)C2CCN(CC3CCCCC3)CC2)CC1 | inconclusive [inhibitor, partial curve]
56 | COC(=O)[C@@]1(Cc2ccc(OC)cc2)[C@H]2c3cc(C(=O)N4CCCC4)n(Cc4ccc(OC)c(OC)c4)c3C[C@H]2CN1C(=O)c1ccccc1 | inconclusive [inhibitor, partial curve, poor fit]
57 | CCN(CC(=O)Nc1c(F)cccc1F)C(=O)c1ccc(S(=O)(=O)N2CCC(C)CC2)cc1 | inconclusive [inhibitor, full curve, poor fit]
58 | CCc1nnc(-n2nc(C)cc2-c2ccccc2)n1N | inconclusive [inhibitor, partial curve]
59 | N#Cc1cc(C(=O)c2ccccc2OCC(=O)Nc2ccccc2Cl)cn(C2CCCCC2)c1=O | inconclusive [inhibitor, partial curve]
60 | N#Cc1cccc(NC(=O)CCNS(=O)(=O)c2ccc3[nH]c(=O)oc3c2)c1 | inconclusive [inhibitor, partial curve, poor fit]
61 | CC1(C)C(C=C(Cl)Cl)C1C(=O)N(Cc1cccc(Cl)c1)C1CCS(=O)(=O)C1 (centres undefined) | inconclusive [inhibitor, partial curve, poor fit]
62 | COc1ccc(C(=O)O/N=C(/c2cccs2)C(C)(C)C)cc1 | inactive
63 | O=C(CS(=O)(=O)c1ccccc1)c1cc2ccccc2oc1=O | inactive
64 | Cc1nn(-c2ccccc2)c(N)c1N=Nc1ccccc1 | inconclusive [inhibitor, full curve, poor fit]
65 | COc1cccc2cc(-c3csc(CCn4nc(C)cc4C)n3)c(=O)oc12 | inconclusive [inhibitor, full curve]
66 | CCN1CCN(c2ncnc3sc(C(=O)Nc4ccccc4F)c(C)c23)CC1 | inconclusive [inhibitor, single point]
67 | COc1ccc(NC(=O)CCC(=O)OCc2ccc(C(=O)Oc3ccc(Cl)cc3)cc2)cc1 | inconclusive [inhibitor, single point]
68 | CC(=O)Nc1ccc(S(=O)(=O)N2CCN(CCC#N)CC2)cc1 | inconclusive [inhibitor, single point]
69 | Cc1cccc(NS(=O)(=O)c2ccc(C3CCCCC3)cc2)n1 | inactive
